Test results as given in PubChem BioAssay (Tox21).
Values joined by “and” are separate entries in the source; they are usually repeats but may differ in a detail not shown here. Equal values may be shown once. The shares of active, inactive and inconclusive entries below differ from those in the screen. For some assays here: Potencies beside an inconclusive call are fits to weak or partial responses and may not hold up. Some structures have more than one record in an assay (separate samples or runs), and their calls can disagree. Active and inactive are the calls of the source. Unless noted, calls come from the whole dose curve; as a rule, active = well fitted curve in the direction sought with a large enough effect in the repeat runs; inconclusive = weak or mixed curves; inactive = no such curve, though single readings can be large; an effect the other way counts as inactive or inconclusive.

Assays:
[1] = target: Glucocorticoid receptor (Homo sapiens) (UniProt P04150); experiment: qHTS assay to identify small molecule antagonists of the glucocorticoid receptor (GR) signaling pathway (AID 720692; active = well fitted inhibition curve with a large enough effect in the signal ratio in the repeat runs, not every such curve was filed as active; inconclusive = weak or mixed curves, or effect the other way; inactive = no such curve, though single readings can be large or run the other way; the % refers to the signal ratio; note: potency is the fitted concentration of half-maximal effect); details: GR-bla HeLa, beta-lactamase FRET ratio, dexamethasone-stimulated, 18 h; activity change, negative = inhibition: at 58.5 µM (top of the series) unless noted
Chain of UniProt P04150 (P04150 whole entry, looked up): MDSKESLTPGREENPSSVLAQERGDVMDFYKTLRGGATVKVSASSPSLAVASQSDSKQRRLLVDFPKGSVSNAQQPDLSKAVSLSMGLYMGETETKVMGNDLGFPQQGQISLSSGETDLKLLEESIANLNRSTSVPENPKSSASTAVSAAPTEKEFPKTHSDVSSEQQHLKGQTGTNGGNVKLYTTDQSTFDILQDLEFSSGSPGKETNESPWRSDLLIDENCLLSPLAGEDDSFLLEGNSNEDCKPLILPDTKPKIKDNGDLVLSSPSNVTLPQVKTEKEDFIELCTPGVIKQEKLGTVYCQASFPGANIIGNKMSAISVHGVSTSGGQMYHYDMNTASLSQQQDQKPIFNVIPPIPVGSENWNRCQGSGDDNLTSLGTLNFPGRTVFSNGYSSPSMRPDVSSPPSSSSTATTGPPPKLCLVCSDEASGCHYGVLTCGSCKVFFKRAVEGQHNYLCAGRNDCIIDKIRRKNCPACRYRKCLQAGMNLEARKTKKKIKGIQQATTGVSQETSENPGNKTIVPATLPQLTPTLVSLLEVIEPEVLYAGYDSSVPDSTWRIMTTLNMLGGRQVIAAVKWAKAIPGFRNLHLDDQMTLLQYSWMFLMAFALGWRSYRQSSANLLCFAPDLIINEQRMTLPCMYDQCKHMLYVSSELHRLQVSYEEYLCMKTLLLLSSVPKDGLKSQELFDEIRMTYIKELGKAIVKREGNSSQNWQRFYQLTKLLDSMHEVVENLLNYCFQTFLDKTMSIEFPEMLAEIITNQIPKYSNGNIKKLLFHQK
Outline: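 GRE-bla HeLa line, dex-stimulated (5 nM final). Compound exposure 18 h, 37 C. Beta-lactamase FRET read after 2 h RT substrate.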

[2] = qHTS assay for identifying genotoxic compounds that show differential cytotoxicity against isogenic chicken DT40 cell lines with known DNA damage response pathways - wild type cell line (AID 743012); details: DT40 wild type chicken cells viability, CellTiter-Glo, 40 h; activity change, negative = cytotoxicity: at 68.4 µM (top of the series) unless noted; note: nearly all actives have a fitted effect of over 60% in size; note: potency is the fitted concentration of half-maximal effect
Outline: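 300 wt DT40 cells/well; cpd (DMSO) pintool-transferred after ~0.5 h at 37 C/5% CO2; 40 h incubation; CellTiter-Glo added, 30 min RT; luminescence read.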

[3] = qHTS assay to identify small molecule antagonists of the thyroid receptor (TR) signaling pathway - cell viability counter screen (AID 743064); details: GH3.TRE-Luc viability, CellTiter-Fluor, 24 h; activity change, negative = cytotoxic: at 70.3 µM (top of the series) unless noted; note: nearly all actives have a fitted effect of over 50% in size; note: potency is the fitted concentration of half-maximal effect
Outline: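 Same-well viability check: GH3.TRE-Luc cells stimulated with 1 nM T3 alongside test compound for 23.5 h, followed by CellTiter-Fluor fluorescence.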

[4] = qHTS assay to identify small molecule antagonists of the estrogen receptor alpha (ER-alpha) signaling pathway - cell viability counter screen (AID 743074; calls by dose curve;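 note: HEK293 cells carrying ER-alpha-UAS-bla reporter stimulated with 17beta-estradiol; nearly all actives have a fitted effect of over 45% in size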; note: potency is the fitted concentration of half-maximal effect)
[5] = target: Estrogen receptor (Homo sapiens) (UniProt P03372); experiment: qHTS assay to identify small molecule agonists of the estrogen receptor alpha (ER-alpha) signaling pathway using the BG1 cell line (AID 743079); details: BG1Luc4E2 cells, ERE-luciferase agonist, 22 h; note: nearly all actives have a fitted effect of over 20% in size
Chain of UniProt P03372 (P03372 whole entry, looked up): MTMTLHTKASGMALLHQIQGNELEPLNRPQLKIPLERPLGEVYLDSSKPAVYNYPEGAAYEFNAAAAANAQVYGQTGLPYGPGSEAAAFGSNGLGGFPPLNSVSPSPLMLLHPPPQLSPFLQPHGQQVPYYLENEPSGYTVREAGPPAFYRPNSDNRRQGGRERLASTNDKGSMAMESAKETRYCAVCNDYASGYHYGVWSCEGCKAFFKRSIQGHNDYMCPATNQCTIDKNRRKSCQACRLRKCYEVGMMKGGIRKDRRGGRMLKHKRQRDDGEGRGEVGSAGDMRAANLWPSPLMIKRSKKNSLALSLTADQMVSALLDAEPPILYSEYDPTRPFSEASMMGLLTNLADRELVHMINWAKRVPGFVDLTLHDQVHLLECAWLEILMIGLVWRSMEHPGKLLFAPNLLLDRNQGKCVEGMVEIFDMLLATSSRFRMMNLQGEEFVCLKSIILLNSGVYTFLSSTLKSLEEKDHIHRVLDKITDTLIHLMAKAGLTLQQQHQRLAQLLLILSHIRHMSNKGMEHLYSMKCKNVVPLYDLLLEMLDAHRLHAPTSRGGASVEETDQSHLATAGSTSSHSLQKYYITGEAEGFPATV

[6] = qHTS assay for small molecule agonists of the antioxidant response element (ARE) signaling pathway (AID 743202; active = well fitted activation curve with a large enough effect in the signal ratio in the repeat runs, not every such curve was filed as active; inconclusive = weak or mixed curves, or effect the other way; inactive = no such curve, though single readings can be large or run the other way; the % refers to the signal ratio; note: potency is the fitted concentration of half-maximal effect); details: HepG2 ARE-bla reporter, beta-lactamase FRET, 16 h; activation: at 73.3 µM (top of the series) unless noted
Outline: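 Steps: seed ARE-bla HepG2 cells (2,000/well); incubate 5 h at 37 C; add compounds by pin tool; incubate 16 h at 37 C; add FRET substrate; read fluorescence after 2 h at RT.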

[7] = target: Retinoic acid receptor RXR-alpha (Homo sapiens) (UniProt P19793); experiment: qHTS assay to identify small molecule agonists of the RXR signaling pathway (AID 1159527; calls by dose curve; note: nearly all actives have a fitted effect of over 35% in size; note: potency is the fitted concentration of half-maximal effect); details: HEK293T RXRa-UAS-bla, beta-lactamase ratio, 16 h; activation: at 76.8 µM (top of the series) unless noted
Chain of UniProt P19793 (P19793 whole entry, looked up): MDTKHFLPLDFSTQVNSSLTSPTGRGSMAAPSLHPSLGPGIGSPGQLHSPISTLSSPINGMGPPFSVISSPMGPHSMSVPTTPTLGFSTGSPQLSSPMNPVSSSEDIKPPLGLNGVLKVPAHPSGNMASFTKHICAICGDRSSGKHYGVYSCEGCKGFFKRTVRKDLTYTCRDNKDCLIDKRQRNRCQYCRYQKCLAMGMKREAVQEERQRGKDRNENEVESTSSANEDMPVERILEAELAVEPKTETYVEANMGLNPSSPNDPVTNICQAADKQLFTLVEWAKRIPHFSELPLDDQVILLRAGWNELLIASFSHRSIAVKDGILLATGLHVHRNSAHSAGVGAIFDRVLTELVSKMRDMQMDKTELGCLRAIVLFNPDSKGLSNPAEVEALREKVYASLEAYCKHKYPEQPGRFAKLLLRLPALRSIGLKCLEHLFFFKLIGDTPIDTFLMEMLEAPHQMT
Outline: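 Reporter activation is measured as beta-lactamase activity via FRET substrate cleavage (emission 460/530 nm) in HEK 293T cells expressing an RXR-alpha-driven bla construct, following 16 hr compound exposure at 37 C.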

[8] = target: Estrogen receptor beta (Homo sapiens) (UniProt Q92731); experiment: qHTS assay to identify small molecule antagonists of the estrogen receptor beta (ER-beta) signaling pathway (AID 1259378; active = well fitted inhibition curve with a large enough effect in the signal ratio in the repeat runs, not every such curve was filed as active; inconclusive = weak or mixed curves, or effect the other way; inactive = no such curve, though single readings can be large or run the other way; the % refers to the signal ratio); details: ER-beta-UAS-bla HEK293T, beta-lactamase FRET ratio, 16 h; activity, negative = inhibition: at 92.4 µM (top of the series) unless noted
Chain of UniProt Q92731 (Q92731 whole entry, looked up): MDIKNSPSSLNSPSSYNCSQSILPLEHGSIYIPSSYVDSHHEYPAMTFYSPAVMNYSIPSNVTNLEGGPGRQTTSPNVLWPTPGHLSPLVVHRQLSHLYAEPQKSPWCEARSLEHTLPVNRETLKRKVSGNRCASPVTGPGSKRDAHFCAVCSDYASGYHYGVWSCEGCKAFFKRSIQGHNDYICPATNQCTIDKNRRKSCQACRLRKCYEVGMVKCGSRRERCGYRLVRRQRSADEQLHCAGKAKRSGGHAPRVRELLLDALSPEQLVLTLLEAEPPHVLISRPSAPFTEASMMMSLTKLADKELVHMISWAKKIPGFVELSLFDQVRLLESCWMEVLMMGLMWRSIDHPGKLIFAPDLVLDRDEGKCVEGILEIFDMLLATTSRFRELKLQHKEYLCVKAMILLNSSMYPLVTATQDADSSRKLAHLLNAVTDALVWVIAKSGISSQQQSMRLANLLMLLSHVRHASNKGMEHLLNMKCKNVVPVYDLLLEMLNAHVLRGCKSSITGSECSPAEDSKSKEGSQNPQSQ
Outline: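 ER-beta-UAS-bla HEK293T (GripTite) cells in 2% charcoal-stripped FBS medium were preincubated 6 hr at 37C, dosed with compound, then stimulated with 1 nM E2 (final) for 16 hr; beta-lactamase reporter read by B/G FRET fluorescence after 2 hr substrate loading.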

[9] = target: Cytochrome P450 1A2 (Homo sapiens) (UniProt P05177); experiment: Cytochrome P450 Family 1 Subfamily A Member 2 (CYP1A2) small molecule antagonists: luciferase reporter qHTS assay (AID 1671199); note: nearly all actives have a fitted effect of over 50% in size; note: potency is the fitted concentration of half-maximal effect
Chain of UniProt P05177 (P05177 whole entry, looked up): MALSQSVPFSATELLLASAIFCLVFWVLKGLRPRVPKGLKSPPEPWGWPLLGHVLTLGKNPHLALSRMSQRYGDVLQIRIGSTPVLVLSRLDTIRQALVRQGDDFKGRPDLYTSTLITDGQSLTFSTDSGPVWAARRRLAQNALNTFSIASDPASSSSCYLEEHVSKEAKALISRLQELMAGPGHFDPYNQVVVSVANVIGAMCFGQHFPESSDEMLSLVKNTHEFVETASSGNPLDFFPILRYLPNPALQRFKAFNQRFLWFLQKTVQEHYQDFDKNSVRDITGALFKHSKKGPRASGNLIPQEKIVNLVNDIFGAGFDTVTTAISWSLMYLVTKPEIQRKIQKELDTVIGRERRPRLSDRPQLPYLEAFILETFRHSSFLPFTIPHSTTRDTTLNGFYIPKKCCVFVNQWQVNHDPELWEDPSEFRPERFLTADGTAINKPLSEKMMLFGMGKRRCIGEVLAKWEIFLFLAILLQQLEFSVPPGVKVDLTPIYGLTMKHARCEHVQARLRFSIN
Outline: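 Quantitative high-throughput format using the P450-Glo CYP1A2 system. Reaction initiated by NADPH regeneration solution, 1 h at room temperature, then stopped with detection reagent; luminescence measured 20 min later.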

[10] = target: Vitamin D3 receptor (Homo sapiens) (UniProt P11473); experiment: qHTS assay to identify small molecule antagonists of the vitamin D receptor (VDR) signaling pathway (AID 743223; active = well fitted inhibition curve with a large enough effect in the signal ratio in the repeat runs, not every such curve was filed as active; inconclusive = weak or mixed curves, or effect the other way; inactive = no such curve, though single readings can be large or run the other way; the % refers to the signal ratio; note: potency is the fitted concentration of half-maximal effect); details: VDR-UAS-bla HEK293T, beta-lactamase FRET ratio, 16 h; activity change, negative = inhibition: at 61 µM (top of the series) unless noted
Chain of UniProt P11473 (P11473 whole entry, looked up): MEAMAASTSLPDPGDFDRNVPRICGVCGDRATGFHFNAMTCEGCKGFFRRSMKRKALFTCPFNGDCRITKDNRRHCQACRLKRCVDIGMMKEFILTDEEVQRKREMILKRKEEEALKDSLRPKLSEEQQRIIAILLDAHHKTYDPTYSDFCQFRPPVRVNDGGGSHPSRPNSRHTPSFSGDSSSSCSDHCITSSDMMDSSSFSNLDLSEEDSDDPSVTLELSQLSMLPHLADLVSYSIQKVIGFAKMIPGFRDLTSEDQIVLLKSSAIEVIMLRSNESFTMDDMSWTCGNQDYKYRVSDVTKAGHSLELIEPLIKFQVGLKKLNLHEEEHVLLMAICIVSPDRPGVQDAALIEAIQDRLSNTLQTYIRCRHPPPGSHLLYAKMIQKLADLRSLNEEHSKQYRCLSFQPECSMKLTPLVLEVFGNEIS
Outline: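 After VDR-bla cells are plated and left 4 h at 37C, DMSO-dissolved compounds and 3 nM (final) calcitriol agonist are added. Incubation continues 16 h at 37C; FRET beta-lactamase substrate then develops 2 h at room temperature.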

[11] = target: Cytochrome P450 2C19 (Homo sapiens) (UniProt P33261); experiment: Cytochrome P450 Family 2 Subfamily C Member 19 (CYP2C19) small molecule antagonists: luciferase reporter qHTS assay (AID 1671197); note: nearly all actives have a fitted effect of over 65% in size; note: potency is the fitted concentration of half-maximal effect
Outline: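 Quantitative high-throughput screen of the Tox21 library using CYP2C19 with proluciferin substrate. Reaction: NADPH regeneration, 37C, 1 h, after 10 min compound preincubation at room temperature. Readout: luminescence.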

[12] = qHTS assay for identifying genotoxic compounds that show differential cytotoxicity against isogenic chicken DT40 cell lines with known DNA damage response pathways - Rev3 mutant cell line (AID 743014); details: chicken DT40 Rev3-/- viability, CellTiter-Glo, 40 h; activity, negative = cytotoxicity: at 68.4 µM (top of the series); note: nearly all actives have a fitted effect of over 55% in size; note: potency is the fitted concentration of half-maximal effect
[13] = qHTS assay to identify small molecule antagonists of the peroxisome proliferator-activated receptor delta (PPARd) signaling pathway - cell viability counter screen (AID 743213); details: PPARd-bla HEK293H viability, CellTiter-Glo luminescence, 17 h; viability change, negative = cytotoxic: at 62 µM (top of the series) unless noted; note: nearly all actives have a fitted effect of over 50% in size
Outline: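 Agonist-stimulated (L165041, 300 nM final) HEK293H PPARd UAS-bla cells are exposed to compounds for 17 h at 37 C, and ATP-based luminescence (CellTiter-Glo) from the same wells reports cytotoxicity.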

[14] = target: Cytochrome P450 2C9 (Homo sapiens) (UniProt P11712); experiment: Cytochrome P450 Family 2 Subfamily C Member 9 (CYP2C9) small molecule antagonists: luciferase reporter qHTS assay (AID 1671198); note: nearly all actives have a fitted effect of over 50% in size; note: potency is the fitted concentration of half-maximal effect
Chain of UniProt P11712 (P11712 whole entry, looked up): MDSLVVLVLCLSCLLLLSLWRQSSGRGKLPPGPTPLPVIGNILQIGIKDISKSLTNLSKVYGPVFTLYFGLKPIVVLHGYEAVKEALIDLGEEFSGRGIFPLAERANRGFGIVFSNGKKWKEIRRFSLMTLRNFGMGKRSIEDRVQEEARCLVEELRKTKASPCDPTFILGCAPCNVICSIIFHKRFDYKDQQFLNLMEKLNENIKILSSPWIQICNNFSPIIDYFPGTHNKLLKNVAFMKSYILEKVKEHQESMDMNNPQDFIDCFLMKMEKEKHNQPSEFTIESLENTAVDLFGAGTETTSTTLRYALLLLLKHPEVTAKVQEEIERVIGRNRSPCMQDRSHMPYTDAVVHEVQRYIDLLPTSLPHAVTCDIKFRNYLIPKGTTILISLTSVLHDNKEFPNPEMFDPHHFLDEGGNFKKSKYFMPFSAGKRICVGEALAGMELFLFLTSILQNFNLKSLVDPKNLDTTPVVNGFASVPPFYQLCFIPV
Outline: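 CYP2C9 activity was measured with a P450-Glo proluciferin substrate. Enzyme–substrate mix was held with compound for 10 min at room temperature, then NADPH regeneration solution was added for 1 h at 37C. Luciferin product was read as luminescence.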

[15] = qHTS assay for small molecule disruptors of the mitochondrial membrane potential (AID 720635); details: HepG2 mitochondrial membrane potential, Mito-MPS dye ratio
Outline: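 HepG2 cells (2,000/well) attached overnight at 37C, then took compound for 1 hr at 37C, 5% CO2. Mito-MPS dye was added for 30 min; fluorescence was read at 490/535 nm (monomers) and 540/590 nm (aggregates).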

[16] = target: Cytochrome P450 2D6 (Homo sapiens) (UniProt P10635); experiment: Cytochrome P450 Family 2 Subfamily D Member 6 (CYP2D6) small molecule antagonists: luciferase reporter qHTS assay (AID 1671196); note: nearly all actives have a fitted effect of over 50% in size; note: potency is the fitted concentration of half-maximal effect
Chain of UniProt P10635 (P10635 whole entry, looked up): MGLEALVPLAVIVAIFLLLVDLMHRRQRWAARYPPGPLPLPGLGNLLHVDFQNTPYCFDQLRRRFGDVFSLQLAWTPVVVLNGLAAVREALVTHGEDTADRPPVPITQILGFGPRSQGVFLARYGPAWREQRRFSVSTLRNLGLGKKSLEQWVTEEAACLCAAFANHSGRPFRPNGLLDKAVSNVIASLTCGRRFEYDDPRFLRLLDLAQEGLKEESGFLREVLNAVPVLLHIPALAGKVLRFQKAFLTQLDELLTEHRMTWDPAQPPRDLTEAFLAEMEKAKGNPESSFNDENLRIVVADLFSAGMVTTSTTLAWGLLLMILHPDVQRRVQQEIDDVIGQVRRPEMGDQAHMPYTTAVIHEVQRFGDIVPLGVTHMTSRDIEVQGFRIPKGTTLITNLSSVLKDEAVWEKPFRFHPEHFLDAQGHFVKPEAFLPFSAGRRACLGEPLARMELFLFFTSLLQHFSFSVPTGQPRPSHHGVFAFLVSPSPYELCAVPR
Outline: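 Quantitative HTS of Tox21 chemicals against CYP2D6 using a luminescent proluciferin substrate. After NADPH addition, 1 h room-temperature reaction; luminescence recorded 20 min post detection reagent.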

[17] = target: Peroxisome proliferator-activated receptor gamma (Homo sapiens) (UniProt P37231); experiment: qHTS assay to identify small molecule antagonists of the peroxisome proliferator-activated receptor gamma (PPARg) signaling pathway (AID 743191; calls by dose curve; note: nearly all actives have a fitted effect of over 30% in size; note: potency is the fitted concentration of half-maximal effect); details: HEK293H PPARg-UAS-bla, beta-lactamase ratio, antagonist, 17 h; ratio activity, negative = inhibition: at 62.6 µM (top of the series) unless noted
Chain of UniProt P37231 (P37231 whole entry, looked up): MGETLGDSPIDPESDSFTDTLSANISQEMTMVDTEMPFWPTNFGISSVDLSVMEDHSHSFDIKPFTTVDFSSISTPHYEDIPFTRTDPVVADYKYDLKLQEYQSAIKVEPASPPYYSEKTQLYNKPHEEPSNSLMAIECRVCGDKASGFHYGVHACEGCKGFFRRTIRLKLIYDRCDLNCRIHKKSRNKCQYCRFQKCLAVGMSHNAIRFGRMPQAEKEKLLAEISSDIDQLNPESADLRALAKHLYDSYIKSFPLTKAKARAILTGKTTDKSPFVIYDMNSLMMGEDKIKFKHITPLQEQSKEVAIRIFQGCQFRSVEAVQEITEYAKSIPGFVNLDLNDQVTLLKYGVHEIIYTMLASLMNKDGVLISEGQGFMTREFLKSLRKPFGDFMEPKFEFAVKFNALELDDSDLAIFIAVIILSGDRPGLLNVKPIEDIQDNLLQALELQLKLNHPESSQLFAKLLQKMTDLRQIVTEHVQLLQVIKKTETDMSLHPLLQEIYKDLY
Outline: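 GeneBLAzer PPARg UAS-bla HEK293H cells carrying a UAS-driven beta-lactamase reporter were plated at 3000 cells/well, preincubated 5 h at 37C, then given compound for 17 h at 37C; LiveBLAzer B/G FRET substrate was read after 1 h at room temperature.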

[18] = Caspase-3/7 induction in CHO-K1 cells by small molecules, qHTS cell viability counter screen (AID 1346979); note: nearly all actives have a fitted effect of over 35% in size; note: potency is the fitted concentration of half-maximal effect
Outline: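 Seeding: 1,500 CHO-K1 cells/well. Rest: 5hr, 37C. Treatment: compounds in DMSO, 16hr. Read: CellTiter-Fluor, 1hr, fluorescence.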

[19] = target: Progesterone receptor (Homo sapiens) (UniProt P06401); experiment: qHTS assay to identify small molecule antagonists of the progesterone receptor (PR) signaling pathway (AID 1346795; active = well fitted inhibition curve with a large enough effect in the signal ratio in the repeat runs, not every such curve was filed as active; inconclusive = weak or mixed curves; the % refers to the signal ratio); details: PR-UAS-bla HEK293T, beta-lactamase FRET ratio, 16 h; activity change, negative = inhibition: at 92.4 µM (top of the series) unless noted
Outline: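 After 6 hr plating at 37C in 2% stripped-serum medium, PR-UAS-bla HEK293T cells got compounds, then 1 nM R5020. Sixteen hours later, LiveBLAzer substrate was applied for 2 hr at room temperature and fluorescence was recorded.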

[20] = activation: at 70.3 µM (top of the series) unless noted
[21] = ratio activity, negative = MMP loss: at 83.2 µM (top of the series) unless noted
% is set by controls: 0 for no effect and ±100 for the full control effect; tags give direction and shape of the fitted curve or compound fluorescence and quenching.

COc1cc(C[C@@H](C)N)c(OC)cc1C
Potency [1]: inactive | Potency [2]: inconclusive: 58.3 µM [cytotoxic, partial curve] | Potency [3]: inconclusive: 46.3 µM [cytotoxic, partial curve, poor fit] | Potency [4]: inactive | activation [5, 20]: inconclusive: 34.5% [activator] [at 95 µM] | Potency [6]: inconclusive: 46.3 µM [falling, partial curve, poor fit] | activation [7]: inconclusive: 0.708% | Potency [8]: inactive | Potency [9]: inconclusive: 47.9 µM [inhibitor]

N#CC(Br)(Br)C(N)=O
Potency [2]: inconclusive: 68.6 µM [cytotoxic, single point] | Potency [6]: inconclusive: 27.3 µM | Potency [10]: inconclusive: 5.49 µM [activator, full curve, poor fit] | Potency [7]: active: 1.55 µM | Potency [11]: inconclusive: 89.4 µM [inhibitor, single point] | Potency [9]: inactive

NC1=NC(=O)C(c2ccccc2)O1 (centres undefined)
Potency [12]: inconclusive: 26.6 µM [rising, partial curve, poor fit] | activity change, negative = cytotoxic [3]: inconclusive: 35% | Potency [6]: inactive | Potency [13]: inactive | activity change, negative = inhibition [10]: inconclusive: -2.78% | Potency [7]: inactive | Potency [8]: inactive | Potency [14]: inactive

c1ccc2c(c1)CCCC2
ratio activity, negative = MMP loss ([15]; at 83.2 µM (top of the series)): inconclusive: -3.28% | ratio activity, negative = MMP loss ([15]; at 95.3 µM (top of the series)): inconclusive: -1.08% | Potency [1]: inconclusive: 792 nM [activator, partial curve, poor fit] and inactive | Potency [12]: inconclusive: 24.8 µM [cytotoxic, partial curve] | Potency [3]: inconclusive: 27.3 µM [rising, single point] | activation [5, 20]: inconclusive: 9.44% [phenotype inactive] [at 95 µM] | activity change, negative = inhibition [10]: inconclusive: -16.4% | Potency [7]: inactive | Potency [16]: active: 7.25 µM and inactive | Potency [9]: inconclusive: 57.6 µM [inhibitor, partial curve, poor fit]

Cc1cnc[nH]1
ratio activity, negative = MMP loss [15, 21]: inconclusive: 4.81% | Potency [1]: inactive | Potency [13]: inactive | activity change, negative = inhibition [10]: inconclusive: 11.9% | Potency [7]: inactive | Potency [11]: inactive | Potency [14]: inconclusive: 38.4 µM [inhibitor, partial curve] | Potency [9]: inconclusive: 60.8 µM [inhibitor, partial curve, poor fit]

OCc1ccco1
Potency [2]: inactive and inconclusive: 54.5 µM [cytotoxic, partial curve, poor fit] | Potency [12]: inactive and inconclusive: 21.7 µM [cytotoxic, full curve] | Potency [3]: inactive | activation [5, 20]: inconclusive: 26.7% [phenotype inactive] [at 95 µM] | ratio activity, negative = inhibition [17]: inconclusive: 18.9% | Potency [10]: inactive | Potency [7]: active: 5.49 µM | Potency [18]: inconclusive: 77 µM [cytotoxic, single point] | Potency [9]: inactive and inconclusive: 71 µM [inhibitor, partial curve, poor fit]

N#Cc1ccccn1
Potency [3]: inconclusive: 80.2 µM [rising, single point] | Potency [4]: inconclusive: 1.74 µM [rising, full curve, poor fit] | activation [5, 20]: inconclusive: -2.31% [phenotype inactive] [at 95 µM] | activation ([5]; at 70.3 µM (top of the series)): inactive: -8.34% | Potency [17]: inconclusive: 57.2 µM [single point] | Potency [7]: inactive | Potency [9]: inconclusive: 83 µM [inhibitor, partial curve, poor fit]

CCSC(C)CC1CC(=O)C(/C(CC)=N/OC/C=C/Cl)=C(O)C1 (centres undefined)
Potency [7]: inactive | activity, negative = inhibition [8]: inconclusive: 3.2% [at 42.5 µM] | Potency [16]: inconclusive: 21.9 µM [inhibitor, partial curve, poor fit] | Potency [9]: inconclusive: 34.7 µM [inhibitor, partial curve, poor fit]

C=CC(Cl)CCl (centres undefined)
Potency [1]: inactive | Potency [2]: inconclusive: 1.97 µM [rising, full curve, poor fit] | Potency [12]: inconclusive: 44.3 µM [cytotoxic, partial curve, poor fit] | Potency [4]: inconclusive: 63.1 µM [cytotoxic, single point] | Potency [17]: inactive and inconclusive: 63.1 µM [activator, partial curve, poor fit] | Potency [6]: inactive | Potency [10]: inconclusive: 0.708 µM [activator, full curve, poor fit] | activation [7]: inconclusive: 11.1% | activity, negative = inhibition [8]: inconclusive: -29.3% | Potency [19]: inactive | Potency [16]: inconclusive: 64.4 µM [inhibitor, partial curve] | Potency [14]: inconclusive: 36.2 µM [inhibitor, partial curve] and inconclusive: 64.8 µM [inhibitor] | Potency [9]: inconclusive: 64.4 µM [inhibitor, partial curve, poor fit] and inconclusive: 64.8 µM [inhibitor, partial curve]

CCC(C)c1cc(C(C)(C)C)cc(-n2nc3ccccc3n2)c1O (centres undefined)
activation [7]: inconclusive: 12.6% [at 35.3 µM] | activity change, negative = inhibition [19]: inconclusive: -0.291% [at 42.5 µM] | Potency [16]: inactive | Potency [14]: inconclusive: 27.5 µM [inhibitor, partial curve, poor fit] | Potency [9]: inconclusive: 27.5 µM [inhibitor, partial curve]

CCCSC(=O)Cl
Potency [15, 21]: inactive | Potency [2]: inconclusive: 77.5 µM [rising, single point] | Potency [12]: inactive | Potency [3]: inactive | Potency [4]: inactive | ratio activity, negative = inhibition [17]: inconclusive: -15.8% [at 81.1 µM] | Potency [6]: inactive | Potency [7]: inconclusive: 0.0062 µM [falling, partial curve, poor fit] | Potency [19]: inactive | Potency [18]: inactive
